This note sets out measurements from the supplement of paper PMC4967469.

What all share (assay): Viability of human cancer cell lines after 72 h of drug (GDSC screen)
Compound in one experiment: CC1(C)CC(=O)c2c(C(F)(F)F)nn(-c3ccc(C(N)=O)c(N[C@H]4CC[C@H](O)CC4)c3)c2C1 [SNX-2112]
The note with it: top dose 2.56 µM. How it is done:
(§1)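 Human cancer cell lines in 384-well plates, medium with 10% serum, drug for 72 h over a 256-fold dose range (nine 2-fold or five 4-fold steps up to the top dose). Adherent lines were fixed and stained with the nucleic acid dye Syto60, suspension lines read with resazurin; signal relative to control wells, capped at 0 and 100%. One two-parameter sigmoid per drug and line, fitted in a mixed model over all curves with the slope shared within a line.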

Compound in another experiment: CN(c1ncccc1CNc1nc(Nc2ccc3c(c2)CC(=O)N3)ncc1C(F)(F)F)S(C)(=O)=O [PF-562271]
Conditions: top dose 2.56 µM; top dose inferred. How it is done:
as §1

Compound in a further experiment: O=C(NC1CC1)c1cccc(-c2ccc3c(NC(=O)C4CC4)n[nH]c3c2)c1 [XMD13-2]
Conditions: top dose 10.24 µM; top dose inferred. How it is done: as §1

Compound in another experiment: CN(C)C/C=C/C(=O)Nc1cc2c(Nc3ccc(F)c(Cl)c3)ncnc2cc1O[C@H]1CCOC1 [Afatinib]
How it is done:
as §1

[1] abbreviates: top dose 0.5 µM, screen: GDSC drug entry 1032.
The mark [2] stands for this setting: top dose 10 µM, screen: GDSC drug entry 1377, top dose inferred.

A lower IC50 marks a more sensitive line; where the fit passes the top or lowest dose, that dose stands as a limit. AUC is the area under the same curve over the 256-fold range up to the top dose, as a fraction; values near 1 show little effect. For part of these data: The top dose, if marked as inferred, comes from the curve model; the source does not state it. For part of these data: An entry number marks a drug with two screens in the source, which often give different values.

As usually defined, the IC50 is the concentration at which inhibition is half-maximal. As to BC-3 (B-cell lymphoma, suspension), the AUC in the experiment with SNX-2112 came to 0.288; with PF-562271, 0.95; with XMD13-2 it was 0.872. For the same cell line, the figures for the IC50 with SNX-2112, with PF-562271 and in the experiment with XMD13-2 were 43.6 nM, over 2560 nM and 8000 nM, respectively.

Consider BICR31 (head and neck, adherent), for which the AUC with SNX-2112 was determined as 0.533; with PF-562271, 0.913; in the experiment with XMD13-2, 0.946. For the same cell line, the concentration for half-maximal inhibition (IC50) with SNX-2112 was 197 nM; with PF-562271, over 2560 nM; with XMD13-2, over 10200 nM.

In the case of BT-474 (breast, adherent), the AUC with SNX-2112 was 0.544; in the experiment with PF-562271, 0.985; with XMD13-2, 0.891. The 50% inhibitory concentration (IC50) with SNX-2112 was 214 nM; with PF-562271 it was over 2560 nM; with XMD13-2 it was over 10200 nM.

For the cell line BT-549 (breast, adherent), in the experiment with Afatinib (setting [1]), the AUC amounted to 0.977 and the half-inhibitory concentration (IC50) is over 500 nM. In addition, in the experiment with Afatinib (setting [2]), the AUC was found to be 0.933 and the IC50 is over 10000 nM.

On to CAL-148 (breast, suspension), for which the AUC amounted to 0.386 in the experiment with SNX-2112, 0.959 with PF-562271 and 0.911 with XMD13-2. In addition, the IC50 with SNX-2112 is 79.8 nM; in the experiment with PF-562271, over 2560 nM; with XMD13-2, over 10200 nM.

As for CHP-134 (neuroblastoma, suspension), in the experiment with SNX-2112, the AUC worked out at 0.844 and the IC50 was over 2560 nM. Further, in the experiment with XMD13-2, the AUC is 0.864 and the half-maximal inhibitory concentration (IC50) is over 10200 nM.

For “COR-L32 (small cell lung carcinoma, suspension)”, in the experiment with Afatinib (setting [2]), the AUC turned out to be 0.903 and the IC50 was over 10000 nM.

As for “COR-L303 (small cell lung carcinoma, suspension)”, in the experiment with SNX-2112, the AUC came to 0.586 and the 50% inhibitory concentration (IC50) is 272 nM. Also, in the experiment with XMD13-2, the AUC is 0.946 and the 50% inhibitory concentration (IC50) was over 10200 nM.

For “COR-L311 (small cell lung carcinoma, suspension)”, in the experiment with SNX-2112, the AUC was 0.65 and the IC50 worked out at 430 nM. For the same cell line, in the experiment with XMD13-2, the AUC was determined as 0.899 and the IC50 is over 10200 nM.

As for Calu-3 (lung adenocarcinoma, adherent), the AUC with SNX-2112 came out at 0.819; with PF-562271, 0.883; with XMD13-2, 0.979. In addition, the IC50 is 1970 nM with SNX-2112, over 2560 nM in the experiment with PF-562271 and over 10200 nM in the experiment with XMD13-2.

For the cell line Caov-3 (ovary, adherent), the figures for the AUC in the experiment with SNX-2112, with PF-562271 and with XMD13-2 were 0.441, 0.983 and 0.926, respectively. Further, the IC50 with SNX-2112 was 113 nM; in the experiment with PF-562271, over 2560 nM; with XMD13-2 it was over 10200 nM.

On to ECC12 (stomach, suspension), for which, in the experiment with PF-562271, the AUC is 0.907 and the IC50 is over 2560 nM.

Take GA-10 (Burkitt lymphoma, suspension): the figures for the AUC with Afatinib (setting [1]), with Afatinib (setting [2]) and with PF-562271 were 0.989, 0.977 and 0.831, respectively. Further, the half-maximal inhibitory concentration (IC50) in the experiment with Afatinib (setting [1]) is over 500 nM; in the experiment with Afatinib (setting [2]) it was over 10000 nM; in the experiment with PF-562271 it was 1290 nM.

In the case of H2810 (mesothelioma, adherent), in the experiment with Afatinib (setting [2]), the AUC was 0.984 and the half-maximal inhibitory concentration (IC50) is over 10000 nM.

Consider HCC202 (breast, adherent), for which the values for the AUC with SNX-2112, with Afatinib (setting [1]) and with Afatinib (setting [2]) were 0.63, 0.797 and 0.612, respectively. Besides, the concentration for half-maximal inhibition (IC50) worked out at 424 nM with SNX-2112, 354 nM with Afatinib (setting [1]) and 1440 nM with Afatinib (setting [2]).

Regarding HCC1187 (breast, suspension), the AUC with Afatinib (setting [1]) came out at 0.959; with Afatinib (setting [2]) it was 0.987; with PF-562271, 0.951; in the experiment with XMD13-2, 0.653. For the same cell line, the concentration for half-maximal inhibition (IC50) in the experiment with Afatinib (setting [1]) is over 500 nM; in the experiment with Afatinib (setting [2]) it was over 10000 nM; with PF-562271 it was over 2560 nM; with XMD13-2, 1660 nM.

Consider HCC1428 (breast, adherent), for which the AUC with SNX-2112 was 0.96; with Afatinib (setting [1]), 0.984; with Afatinib (setting [2]) it was 0.986; with XMD13-2, 0.985. Moreover, the 50% inhibitory concentration (IC50) with SNX-2112 is over 2560 nM; with Afatinib (setting [1]), over 500 nM; with Afatinib (setting [2]) it was over 10000 nM; with XMD13-2, over 10200 nM.

Turning to HCC1599 (breast, suspension), the AUC turned out to be 0.384 in the experiment with SNX-2112, 0.939 with PF-562271 and 0.863 with XMD13-2. In addition, the results for the IC50 with SNX-2112, with PF-562271 and with XMD13-2 were 73 nM, over 2560 nM and over 10200 nM, respectively.

“HCC-33 (small cell lung carcinoma, adherent)”: the figures for the AUC in the experiment with SNX-2112, in the experiment with PF-562271 and with XMD13-2 were 0.802, 0.97 and 0.894, respectively. For the same cell line, the IC50 is 1280 nM with SNX-2112, over 2560 nM in the experiment with PF-562271 and over 10200 nM with XMD13-2.

As to HCC-827 (lung adenocarcinoma, adherent), in the experiment with SNX-2112, the AUC came out at 0.907 and the IC50 is over 2560 nM. In addition, in the experiment with XMD13-2, the AUC is 0.967 and the half-inhibitory concentration (IC50) was over 10200 nM.

As to HCE-4 (oesophagus, adherent), the AUC in the experiment with SNX-2112 was determined as 0.985; with PF-562271 it was 0.984; with XMD13-2, 0.992. Besides, the IC50 with SNX-2112 was over 2560 nM; in the experiment with PF-562271 it was over 2560 nM; with XMD13-2, over 10200 nM.

For HCT-116 (large intestine, adherent), the AUC with SNX-2112 came to 0.341; in the experiment with PF-562271, 0.835; in the experiment with XMD13-2, 0.774. Further, the IC50 with SNX-2112 turned out to be 59.5 nM; in the experiment with PF-562271, 1560 nM; in the experiment with XMD13-2, 3810 nM.

On to HPAC (pancreas, adherent), for which the AUC was determined as 0.492 with SNX-2112, 0.903 with PF-562271 and 0.91 with XMD13-2. The values for the concentration for half-maximal inhibition (IC50) in the experiment with SNX-2112, with PF-562271 and with XMD13-2 were 150 nM, over 2560 nM and over 10200 nM, respectively.

Turning to Hs940-T (melanoma, adherent), the values for the AUC with SNX-2112, with Afatinib (setting [2]) and with XMD13-2 were 0.984, 0.978 and 0.91, respectively. Besides, the IC50 was over 2560 nM in the experiment with SNX-2112, over 10000 nM with Afatinib (setting [2]) and over 10200 nM in the experiment with XMD13-2.

Regarding IM-95 (stomach, adherent), the AUC amounted to 0.463 with SNX-2112, 0.83 with PF-562271 and 0.877 in the experiment with XMD13-2. Further, the values for the IC50 with SNX-2112, with PF-562271 and with XMD13-2 were 126 nM, 1760 nM and over 10200 nM, respectively.

As to Jurkat (T-cell leukaemia, suspension), the AUC was 0.993 in the experiment with Afatinib (setting [1]) and 0.972 in the experiment with Afatinib (setting [2]). Besides, the concentration for half-maximal inhibition (IC50) with Afatinib (setting [1]) was over 500 nM; with Afatinib (setting [2]), over 10000 nM.

Regarding “K-562 (chronic myeloid leukaemia, suspension)”, in the experiment with XMD13-2, the AUC was 0.883 and the IC50 is over 10200 nM.

With KP-N-YS (neuroblastoma, adherent), the AUC with SNX-2112 was found to be 0.448; in the experiment with PF-562271, 0.933; in the experiment with XMD13-2, 0.629. For the same cell line, the 50% inhibitory concentration (IC50) is 113 nM with SNX-2112, over 2560 nM in the experiment with PF-562271 and 1530 nM with XMD13-2.

For the cell line KYSE-180 (oesophagus, adherent), the AUC in the experiment with SNX-2112 came to 0.382; with PF-562271, 0.832; with XMD13-2, 0.938. The 50% inhibitory concentration (IC50) with SNX-2112 is 77.1 nM; in the experiment with PF-562271, 1540 nM; in the experiment with XMD13-2, over 10200 nM.
